# Experimental data as given in the supplement of paper PMC8728848.
# Some of the results follow.
# B1: DC-ASGPR Long (Homo sapiens) (protein)
# chain: MTRTYENFQYLENKVKVQGFKNGPLPLQSLLQRLRSGPCHLLLSLGLGLLLLVIICVVGFQNSKFQRDLVTLRTDFSNFTSNTVAEIQALTSQGSSLEETIASLKAEVEGFKQERQAGVSELQEHTTQKAHLGHCPHCPSVCVPVHSEMLLRVQQLVQDLKKLTCQVATLNNNASTEGTCCPVNWVEHQDSCYWFSHSGMSWAEAEKYCQLKNAHLVVINSREEQNFVQKYLGSAYTWMGLSDPEGAWKWVDGTDYATGFQNWKPGQPDDWQGHGLGGGEDCAHFHPDGGWNDDVCQRPYHWVCEAGLGQTSQESH
# Key:
# Assay in all cases: glycan array binding signal (z-score within array); higher = stronger binding
# Details in all cases: glycan notation: IUPAC condensed, linker removed
# Fuc(a1-2)Gal = target: Fuc(a1-2)Gal
# How it was run: (§1)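 Glycan array binding is given as a within-array Z-score, which can be read as non-binding when negative. The arrays, 3228 of them, came from the Consortium for Functional Glycomics database and were retained only where the protein sequence was available. Z-scores were averaged across arrays of the same protein sequence at different concentrations or buffers and across linkers.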
# Fuc(a1-2)Gal(b1-3)GalNAc = target: Fuc(a1-2)Gal(b1-3)GalNAc
# How it was run: as §1
# [1] = target: Fuc(a1-2)Gal(b1-3)GalNAc(a1-3)[Fuc(a1-2)]Gal(b1-4)Glc
# How it was run: as §1
# [2] = target: Fuc(a1-2)Gal(b1-3)GalNAc(a1-3)[Fuc(a1-2)]Gal(b1-4)GlcNAc
# How it was run: as §1
# [3] = target: Fuc(a1-2)Gal(b1-3)GalNAc(b1-3)Gal
# How it was run: as §1
# [4] = target: Fuc(a1-2)Gal(b1-3)GalNAc(b1-3)Gal(a1-4)Gal(b1-4)Glc
# How it was run: as §1
# [5] = target: Fuc(a1-2)Gal(b1-3)GalNAc(b1-4)[Neu5Ac(a2-3)]Gal(b1-4)Glc
# How it was run: as §1
# Fuc(a1-2)Gal(b1-3)GlcNAc = target: Fuc(a1-2)Gal(b1-3)GlcNAc
# How it was run: as §1
# [6] = target: Fuc(a1-2)Gal(b1-3)GlcNAc(b1-2)Man(a1-3)[Fuc(a1-2)Gal(b1-3)GlcNAc(b1-2)Man(a1-6)]Man(b1-4)GlcNAc(b1-4)GlcNAc
# How it was run: as §1
# [7] = target: Fuc(a1-2)Gal(b1-3)GlcNAc(b1-2)Man(a1-3)[Fuc(a1-2)Gal(b1-3)GlcNAc(b1-2)Man(a1-6)]Man(b1-4)GlcNAc(b1-4)[Fuc(a1-6)]GlcNAc
# How it was run: as §1
# [8] = target: Fuc(a1-2)Gal(b1-3)GlcNAc(b1-3)Gal(b1-4)Glc
# How it was run: as §1
# [9] = target: Fuc(a1-2)Gal(b1-3)GlcNAc(b1-3)GalNAc
# How it was run: as §1
# [10] = target: Fuc(a1-2)Gal(b1-3)GlcNAc(b1-3)[Fuc(a1-2)Gal(b1-3)GlcNAc(b1-6)]GalNAc
# How it was run: as §1
# [11] = target: Fuc(a1-2)Gal(b1-3)GlcNAc(b1-3)[Gal(b1-4)GlcNAc(b1-6)]Gal(b1-4)Glc
# How it was run: as §1
# [12] = target: Fuc(a1-2)Gal(b1-3)GlcNAc(b1-3)[Neu5Ac(a2-6)Gal(b1-4)GlcNAc(b1-6)]Gal(b1-4)Glc
# How it was run: as §1
# [13] = target: Fuc(a1-2)Gal(b1-3)GlcNAc6S
# How it was run: as §1
# [14] = target: Fuc(a1-2)Gal(b1-3)[Fuc(a1-4)]GlcNAc
# How it was run: as §1
# [15] = target: Fuc(a1-2)Gal(b1-3)[Fuc(a1-4)]GlcNAc(b1-2)Man(a1-3)[Fuc(a1-2)Gal(b1-3)[Fuc(a1-4)]GlcNAc(b1-2)Man(a1-3)]Man(b1-4)GlcNAc(b1-4)GlcNAc
# How it was run: as §1
# [16] = target: Fuc(a1-2)Gal(b1-3)[Fuc(a1-4)]GlcNAc(b1-2)Man(a1-3)[Fuc(a1-2)Gal(b1-3)[Fuc(a1-4)]GlcNAc(b1-2)Man(a1-6)]Man(b1-4)GlcNAc(b1-4)[Fuc(a1-6)]GlcNAc(b1-4)[Fuc(a1-6)]GlcNAc
# How it was run: as §1
# [17] = target: Fuc(a1-2)Gal(b1-3)[Fuc(a1-4)]GlcNAc(b1-3)[Fuc(a1-3)[Gal(b1-4)]GlcNAc(b1-6)]Gal(b1-4)Glc
# How it was run: as §1
# [18] = target: Fuc(a1-2)Gal(b1-3)[Fuc(a1-4)]GlcNAc(b1-3)[Gal(b1-4)GlcNAc(b1-6)]Gal(b1-4)Glc
# How it was run: as §1
# [19] = target: Fuc(a1-2)Gal(b1-4)Fuc(a1-3)]GlcNAc(b1-2)Man(a1-3)[Fuc(a1-2)Gal(b1-4)[Fuc(a1-3)]GlcNAc(b1-2)Man(a1-6)]Man(b1-4)GlcNAc(b1-4)GlcNAc
# How it was run: as §1
# Fuc(a1-2)Gal(b1-4)Glc = target: Fuc(a1-2)Gal(b1-4)Glc
# How it was run: as §1
# Fuc(a1-2)Gal(b1-4)Glc6S = target: Fuc(a1-2)Gal(b1-4)Glc6S
# How it was run: as §1
# Fuc(a1-2)Gal(b1-4)GlcNAc = target: Fuc(a1-2)Gal(b1-4)GlcNAc
# How it was run: as §1
# [20] = target: Fuc(a1-2)Gal(b1-4)GlcNAc(b1-2)Man
# How it was run: as §1
# [21] = target: Fuc(a1-2)Gal(b1-4)GlcNAc(b1-2)Man(a1-3)[Fuc(a1-2)Gal(b1-4)GlcNAc(b1-2)Man(a1-6)]Man(b1-4)GlcNAc(b1-4)GlcNAc
# How it was run: as §1
# [22] = target: Fuc(a1-2)Gal(b1-4)GlcNAc(b1-2)Man(a1-3)[Fuc(a1-2)Gal(b1-4)GlcNAc(b1-2)Man(a1-6)]Man(b1-4)GlcNAc(b1-4)[Fuc(a1-6)]GlcNAc
# How it was run: as §1
# [23] = target: Fuc(a1-2)Gal(b1-4)GlcNAc(b1-2)[Fuc(a1-2)Gal(b1-4)GlcNAc(b1-4)]Man(a1-3)[Fuc(a1-2)Gal(b1-4)GlcNAc(b1-2)Man(a1-6)]Man(b1-4)GlcNAc(b1-4)GlcNAc
# How it was run: as §1
# [24] = target: Fuc(a1-2)Gal(b1-4)GlcNAc(b1-3)Gal(b1-4)GlcNAc
# How it was run: as §1
binder,measurement,setting,value
B1,glycan array binding signal (z-score),Fuc(a1-2)Gal,-0.246
same,glycan array binding signal (z-score),Fuc(a1-2)Gal(b1-3)GalNAc,-0.268
same,glycan array binding signal (z-score),[1],-0.45
same,glycan array binding signal (z-score),[2],-0.467
same,glycan array binding signal (z-score),[3],-0.358
same,glycan array binding signal (z-score),[4],-0.018
same,glycan array binding signal (z-score),[5],0.292
same,glycan array binding signal (z-score),Fuc(a1-2)Gal(b1-3)GlcNAc,-0.309
same,glycan array binding signal (z-score),[6],-1.26
same,glycan array binding signal (z-score),[7],-0.382
same,glycan array binding signal (z-score),[8],-0.336
same,glycan array binding signal (z-score),[9],-0.278
same,glycan array binding signal (z-score),[10],-0.391
same,glycan array binding signal (z-score),[11],-0.124
same,glycan array binding signal (z-score),[12],-0.294
same,glycan array binding signal (z-score),[13],0.23
same,glycan array binding signal (z-score),[14],-0.302
same,glycan array binding signal (z-score),[15],0.138
same,glycan array binding signal (z-score),[16],0.45
same,glycan array binding signal (z-score),[17],-0.381
same,glycan array binding signal (z-score),[18],-0.417
same,glycan array binding signal (z-score),[19],0.217
same,glycan array binding signal (z-score),Fuc(a1-2)Gal(b1-4)Glc,-0.229
same,glycan array binding signal (z-score),Fuc(a1-2)Gal(b1-4)Glc6S,0.033
same,glycan array binding signal (z-score),Fuc(a1-2)Gal(b1-4)GlcNAc,-0.356
same,glycan array binding signal (z-score),[20],-0.358
same,glycan array binding signal (z-score),[21],-0.517
same,glycan array binding signal (z-score),[22],-0.23
same,glycan array binding signal (z-score),[23],1.48
same,glycan array binding signal (z-score),[24],0.657
